{"source": "PubChem BioAssay AID2675", "about": "(National Center for Advancing Translational Sciences (NCATS), 2010)", "note": "About 100 (0.036%) of roughly 280,000 compounds were called active. Inconclusive means that the source gave no clear call. Such entries were picked first, then a sample of the others. Calls come from the whole dose curve; as a rule, active = well fitted inhibition curve with a large enough effect in the signal ratio, with a control signal flat (not every such curve was filed as active); inconclusive = small, poorly fitted or top-dose-only effect, or effect the other way, or a change in a side signal; inactive = no such curve, though single readings can be large or run the other way; the % refers to the signal ratio. Where the call is inconclusive, the potency comes from a doubtful curve fit. “Side channel” marks fits to a control or component signal instead of the main read-out. Potency is the fitted concentration of half-maximal effect; tags give direction and shape of the fitted curve or compound fluorescence and quenching."}
{"target": "Muscleblind-like protein 1 (Homo sapiens) (UniProt Q9NR56)", "sequence (Q9NR56 whole entry, looked up)": "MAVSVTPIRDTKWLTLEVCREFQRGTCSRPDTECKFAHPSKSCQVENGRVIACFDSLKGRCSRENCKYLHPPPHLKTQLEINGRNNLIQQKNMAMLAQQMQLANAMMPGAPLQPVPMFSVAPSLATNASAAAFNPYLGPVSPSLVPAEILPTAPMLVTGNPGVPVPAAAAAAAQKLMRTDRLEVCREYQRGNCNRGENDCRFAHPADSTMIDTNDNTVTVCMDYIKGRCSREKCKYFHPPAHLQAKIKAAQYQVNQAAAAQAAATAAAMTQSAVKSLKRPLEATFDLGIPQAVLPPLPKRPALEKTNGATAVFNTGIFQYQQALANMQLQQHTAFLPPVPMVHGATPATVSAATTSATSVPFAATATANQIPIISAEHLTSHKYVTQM", "experiment": "qHTS Assay for Inhibitors of MBNL1-poly(CUG) RNA binding", "settings": "TR-FRET MBNL1-His/biotin-(CUG)12 binding, 665/545 ratio; series mostly up to 57.5 µM", "method_in_brief": "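TR-FRET readout: Ex 340 nm, 665/545 nm emission ratio, normalized to buffer-only (basal) and MBNL1-(CUG)12 controls. Complex of MBNL1-His with Biotin-(CUG)12, compounds 92 nM–58 uM, incubated 60 min at room temperature.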"}
{"compound": "C=CCN1N=C(/C=C/c2ccc(OC)cc2)CCC1=O", "Potency": "inconclusive: 20 µM [quencher, side channel, partial curve]"}
{"compound": "O=C(OCn1nnc2ccccc2c1=O)c1ccc(N2CCOCC2)c([N+](=O)[O-])c1", "Potency": "inconclusive: 4.47 µM [activator, partial curve]"}
{"compound": "O=c1c2sc(-c3ccccc3)cc2nc2n1CCC2", "Potency": "inconclusive: 11.2 µM [quencher, side channel, partial curve]"}
{"compound": "CN(c1ccccc1)S(=O)(=O)c1ccc(NC(=O)c2ccc(-c3ccccc3)cc2)cc1", "Potency": "inactive"}
{"compound": "CCOc1ccc(NC(=O)c2cn(-c3ccc(OCC)cc3)c(=O)c3cc(OC)c(OC)cc23)cc1", "Potency": "inactive"}
{"compound": "O=C(NC(=S)Nc1ccc(CN2CCOCC2)cc1)c1ccc([N+](=O)[O-])cc1Cl", "Potency": "inconclusive: 12.6 µM [quencher, partial curve]"}
{"compound": "COCCn1c(C)cc(/C=C2/SC(=O)N(C(C)C(=O)OC)C2=O)c1C", "note": "(configuration not stated)", "Potency": "inactive"}
{"compound": "S=C(Nc1ccc(Oc2ccccc2)cc1)N(CCCN1CCOCC1)Cc1ccccn1", "Potency": "inactive"}
{"compound": "CCOCCCNC(=O)c1cc2c(=O)n(CC)c3ccccc3c2s1", "Potency": "inconclusive: 28.2 µM [quencher, side channel, single point]"}
{"compound": "O=[N+]([O-])c1ccc(N2CCN(Cc3ccncc3)CC2)cc1", "Potency": "inconclusive: 15.8 µM [quencher, side channel, partial curve]"}
{"compound": "COc1ccc(CC2S/C(=N/N=C/c3ccccc3O)NC2=O)cc1", "note": "(configuration not stated)", "Potency": "inactive"}
{"compound": "O=C(CN1CCCC1)Nc1ccc(Br)cc1[N+](=O)[O-]", "Potency": "inconclusive: 7.94 µM [quencher, side channel, partial curve]"}
{"compound": "COc1ccc(-c2c(C)[nH]n3c(=O)c(Cc4ccccc4)c(C)nc23)cc1", "Potency": "inactive"}
{"compound": "CCCCC1=CC2=C(c3ccco3)C(=O)C(C)(OC(=O)c3ccc(OC)cc3)C(=O)C2=CN1CC1CC1", "note": "(configuration not stated)", "Potency": "inactive"}
{"compound": "CCOc1nc(-c2ccc(Cl)cc2)nc2ccccc12", "Potency": "inconclusive: 14.1 µM [fluorescent, side channel, partial curve]"}
{"compound": "O=c1c(Cl)cc(Cl)nn1-c1ccccc1", "Potency": "inconclusive: 20 µM [quencher, side channel, partial curve]"}
{"compound": "COc1ccc(Cl)cc1-c1n[nH]c(=S)n1C", "Potency": "inconclusive: 22.4 µM [fluorescent, side channel, single point]"}
{"compound": "Cc1cc(-c2csc(NC(=O)c3ccc(S(=O)(=O)N(C)C)cc3)n2)c(C)n1-c1ccccc1", "Potency": "inactive"}
{"compound": "Cc1ccc(C(=O)N/N=C\\c2cccn2C)cn1", "Potency": "inconclusive: 20 µM [quencher, side channel, single point]"}
{"compound": "COc1ccc(C(=O)N2CCCC(c3nc(-c4cc(OC)c(OC)c(OC)c4)no3)C2)cc1", "note": "(configuration not stated)", "Potency": "inconclusive: 0.708 µM [quencher, side channel, single point]"}
{"compound": "Cc1cc(-c2ccco2)c(C#N)c2nc3ccccc3n12", "Potency": "inconclusive: 14.1 µM [quencher, side channel, partial curve]"}
{"compound": "O=C1CSC(c2ccc([N+](=O)[O-])cc2)N1c1ccccc1", "note": "(configuration not stated)", "Potency": "inconclusive: 15.8 µM [quencher, side channel, partial curve]"}
{"compound": "CCOC(=O)N1CCC(Nc2c(-c3ccc(C)c(C)c3)c(=O)c2=O)CC1", "Potency": "inconclusive: 17.8 µM [quencher, side channel, single point]"}
{"compound": "COc1ccccc1-n1c(=O)c(C#N)c(-c2ccc([N+](=O)[O-])cc2)c2cc(C(=O)c3cc(F)ccc3O)cnc21", "Potency": "inconclusive: 7.94 µM [quencher, side channel, partial curve]"}
{"compound": "CCCOC(=O)c1ccc(NC(=O)c2cc(OC)c(OC)c(OC)c2Br)cc1", "Potency": "inconclusive: 0.891 µM [quencher, side channel, full curve, poor fit]"}
{"compound": "Clc1ccc2nc(-c3ccc(Br)s3)cn2c1", "Potency": "inactive"}
{"compound": "C=CCc1c(C)nc2cc(-c3ccc(C)cc3)[nH]n2c1=O", "Potency": "inactive"}
{"compound": "CC(C)(C)NC(=O)c1cccc2c1-c1ccccc1C2=O", "Potency": "inconclusive: 14.1 µM [quencher, side channel, partial curve]"}
{"compound": "C=CCNS(=O)(=O)c1ccc(OCC(=O)OCC)cc1", "Potency": "inconclusive: 7.08 µM [fluorescent, side channel, single point]"}
{"compound": "O=C(NCC(=O)N1CCC2(CC1)NCCc1[nH]cnc12)c1ccc2ccccc2c1", "Potency": "inconclusive: 17.8 µM [quencher, side channel, partial curve]"}
{"compound": "O=C(N/N=C/c1cccc([N+](=O)[O-])c1)c1c[nH]c2ccccc12", "Potency": "inconclusive: 3.98 µM [quencher, side channel, full curve]"}
{"compound": "Cc1ccccc1Nc1nnc(-c2ccc(C(=O)NCCO)cc2)c2ccccc12", "Potency": "inconclusive: 15.8 µM [quencher, side channel, partial curve]"}
{"compound": "CSc1ccccc1C(=O)Nc1cccc([N+](=O)[O-])c1", "Potency": "inconclusive: 7.08 µM [quencher, side channel, partial curve]"}
{"compound": "COc1ccc(S(=O)(=O)N2CCN(C(=O)c3ccc([N+](=O)[O-])o3)CC2)cc1", "Potency": "inconclusive: 11.2 µM [quencher, side channel, partial curve]"}
{"compound": "COc1ccc(NC(=O)C2=CC(c3cccs3)=NS(=O)(=O)N2C)cc1", "Potency": "inconclusive: 14.1 µM [quencher, side channel, partial curve]"}
{"compound": "O=[N+]([O-])c1ccc2nc(-c3ccc(Cl)cc3)[nH]c2c1", "Potency": "inconclusive: 3.98 µM [quencher, side channel, single point]"}
{"compound": "CC12CCC(C(=O)NCc3ccccc3Cl)(C(Br)C1=O)C2(C)C", "note": "(configuration not stated)", "Potency": "inconclusive: 1.12 µM [fluorescent, side channel, full curve]"}
{"compound": "Nc1nnc(SCc2ccc([N+](=O)[O-])cc2)s1", "Potency": "inconclusive: 17.8 µM [quencher, side channel, single point]"}
{"compound": "COc1ccc2cc(CN(CCO)C(=O)c3ccccc3F)c(=O)[nH]c2c1", "Potency": "inactive"}
{"compound": "CN1C(=O)/C(=N\\OC(=O)c2ccccc2Cl)c2ccccc21", "Potency": "inconclusive: 25.1 µM [quencher, side channel, single point]"}
{"compound": "Cc1ccc(Nc2c([N+](=O)[O-])cc(C(=O)N3CC(=O)Nc4ccccc43)cc2[N+](=O)[O-])c(C)c1", "Potency": "inconclusive: 20 µM [quencher, side channel, partial curve]"}
{"compound": "C[C@@H]1C[C@H]2[C@@H]3C[C@H](F)C4=CC(=O)C=C[C@]4(C)[C@@]3(F)[C@@H](O)C[C@]2(C)[C@@]1(O)C(=O)COC(=O)C(C)(C)C", "Potency": "inactive"}
{"compound": "O=C(CC1Sc2ncnn2C1=O)Nc1ccc(Br)cc1", "note": "(configuration not stated)", "Potency": "inconclusive: 8.91 µM [quencher, side channel, single point]"}
{"compound": "O=Cc1c(-[n+]2ccccc2)nc([O-])n1-c1ccccc1", "Potency": "inconclusive: 22.4 µM [quencher, side channel, partial curve]"}
{"compound": "COc1cccc(Nc2ccc([N+](=O)[O-])c3nonc23)c1", "Potency": "inconclusive: 14.1 µM [quencher, side channel, partial curve]"}
{"compound": "Nc1nc(NCc2ccccc2)nc(NCc2ccccc2)c1[N+](=O)[O-]", "Potency": "inactive"}
{"compound": "N#CCCn1nc(-c2ccc([N+](=O)[O-])cc2)cc1Nc1ccccc1NC(=O)C(F)(F)F", "Potency": "inconclusive: 3.16 µM [quencher, side channel, full curve, poor fit]"}
{"compound": "COc1cccc(OC)c1OCCCN1CCC(Cc2ccccc2)CC1", "Potency": "inactive"}
{"compound": "CCCCCc1ccc(-c2ccc(=O)[nH]n2)cc1", "Potency": "inactive"}
{"compound": "Cc1cccc(C)c1NC(=O)CN(C)C(=O)c1cc([N+](=O)[O-])ccc1N1CCOCC1", "Potency": "inconclusive: 25.1 µM [quencher, side channel, partial curve]"}
{"compound": "CCCCn1c(SCC(=O)Nc2cccc(OC)c2)nc2ccc(N3CCOCC3)cc2c1=O", "Potency": "inactive"}
{"compound": "CCC(C)c1ccc(O)c(NC(=S)NC(=O)c2cccnc2)c1", "note": "(configuration not stated)", "Potency": "inactive"}
{"compound": "Cc1cccc(C(=O)NNS(=O)(=O)c2ccccc2[N+](=O)[O-])c1", "Potency": "inconclusive: 39.8 µM [inhibitor, single point]"}
{"compound": "CCCc1cc(=O)n2[nH]c(SCc3ccccc3)nc2n1", "Potency": "inconclusive: 39.8 µM [quencher, side channel, single point]"}
{"compound": "Cc1ccc(C)c(N2CCN(C(=O)c3ccc4nsnc4c3)CC2)c1", "Potency": "inconclusive: 28.2 µM [quencher, partial curve]"}
{"compound": "COc1ccc(CC(C)N2CCN(c3cccc(C(F)(F)F)c3)CC2)cc1OC", "note": "(configuration not stated)", "Potency": "inactive"}
{"compound": "COc1ccc(NC(=S)NC(=O)/C=C/c2ccco2)cc1", "Potency": "inconclusive: 25.1 µM [quencher, side channel, partial curve]"}
{"compound": "O=C(NCCN1CCOCC1)c1cc([N+](=O)[O-])ccc1Cl", "Potency": "inconclusive: 15.8 µM [quencher, side channel, partial curve]"}
{"compound": "O=C(CNC(c1ccccc1)c1ccccc1)Nc1ccccc1-c1ccccc1", "Potency": "inconclusive: 3.16 µM [fluorescent, side channel, partial curve]"}
{"compound": "COc1ccc(NC(=O)N(Cc2cc3cc(C)ccc3[nH]c2=O)CC2CCCO2)cc1", "note": "(configuration not stated)", "Potency": "inactive"}
{"compound": "COc1ccc(-c2cc(=O)oc3cc(OCC(=O)NCCN4CCOCC4)ccc23)cc1", "Potency": "inconclusive: 3.98 µM [quencher, side channel, full curve]"}
{"compound": "COCCn1nnnc1C(c1cc2ccc(OC)cc2[nH]c1=O)N1CCc2ccccc2C1", "note": "(configuration not stated)", "Potency": "inconclusive: 10 µM [quencher, partial curve]"}
